According to paper PMC4336329 (PLoS ONE, 2015):
Out of some 310,000 compounds screened, about 2,200 (0.71%) showed an effect of 50% or more. The effect is printed as a negative number. This is one part of the list.

target: human ether-à-go-go-related gene (hERG) potassium channel (human, UniProt Q12809); experiment: primary screen, population patch clamp on CHO cells stably expressing hERG
Sequence (Q12809 whole entry, looked up): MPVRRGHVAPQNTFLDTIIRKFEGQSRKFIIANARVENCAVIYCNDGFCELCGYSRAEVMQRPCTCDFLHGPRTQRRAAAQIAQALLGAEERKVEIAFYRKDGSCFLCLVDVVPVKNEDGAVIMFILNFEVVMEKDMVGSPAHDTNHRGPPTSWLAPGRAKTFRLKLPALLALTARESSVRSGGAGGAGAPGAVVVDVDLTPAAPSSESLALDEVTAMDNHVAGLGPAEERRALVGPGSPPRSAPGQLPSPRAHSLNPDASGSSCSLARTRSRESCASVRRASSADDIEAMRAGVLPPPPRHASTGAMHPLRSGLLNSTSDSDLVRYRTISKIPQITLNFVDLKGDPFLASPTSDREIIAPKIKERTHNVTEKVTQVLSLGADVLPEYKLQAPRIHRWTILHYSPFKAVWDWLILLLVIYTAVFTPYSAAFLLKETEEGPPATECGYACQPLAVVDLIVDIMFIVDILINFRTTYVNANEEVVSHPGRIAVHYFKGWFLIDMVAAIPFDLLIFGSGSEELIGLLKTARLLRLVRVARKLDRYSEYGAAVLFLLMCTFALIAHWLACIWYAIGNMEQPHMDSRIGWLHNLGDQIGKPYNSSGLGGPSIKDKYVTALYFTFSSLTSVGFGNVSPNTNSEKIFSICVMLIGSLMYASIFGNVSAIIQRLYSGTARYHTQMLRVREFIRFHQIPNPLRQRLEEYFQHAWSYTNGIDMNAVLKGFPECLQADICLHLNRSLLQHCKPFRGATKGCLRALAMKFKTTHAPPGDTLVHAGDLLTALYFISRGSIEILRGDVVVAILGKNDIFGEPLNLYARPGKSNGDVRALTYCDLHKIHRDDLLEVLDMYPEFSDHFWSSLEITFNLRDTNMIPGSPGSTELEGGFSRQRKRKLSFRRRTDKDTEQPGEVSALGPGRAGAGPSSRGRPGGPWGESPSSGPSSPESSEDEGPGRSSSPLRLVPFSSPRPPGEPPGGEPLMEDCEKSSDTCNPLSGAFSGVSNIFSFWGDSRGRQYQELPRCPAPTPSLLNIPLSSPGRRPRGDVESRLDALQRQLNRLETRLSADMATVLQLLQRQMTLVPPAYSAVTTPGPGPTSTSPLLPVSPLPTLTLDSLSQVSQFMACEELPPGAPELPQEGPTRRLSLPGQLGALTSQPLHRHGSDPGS

Compound	hERG current change (%, negative = inhibition) at 1uM [%]
Cc1[nH]c(C)c(S(=O)(=O)N2CCN(c3cccc(C(F)(F)F)c3)CC2)c1C(=O)N1CCCCC1	16.7
CC(C)(C)CC(=O)NC(=S)NCc1ccccc1	16.5
CCOc1ccccc1CN1CCN(Cc2c[nH]c3ccccc23)CC1CCO (stereo not drawn)	9.45
Cc1nc2c(-c3ccccc3)c[nH]n2c(=O)c1Cc1ccccc1	13.3
O=C1CCCN2N=C(SCC(=O)Nc3ccc(OC(F)(F)F)cc3)SC2=N1	16.2
Cc1ccc(C(=O)NCc2ccco2)cc1S(=O)(=O)N1CCOCC1	18.1
Cc1cc(C)cc(OCC(=O)OCC(=O)N(CC(C)C)c2c(N)n(Cc3ccccc3)c(=O)[nH]c2=O)c1	3.24
O=c1[nH]c(C2CCCN(S(=O)(=O)c3cccc(F)c3)C2)nc2c1nnn2Cc1ccccc1 (stereo not drawn)	2.9
O=C(NNc1cc(Cl)cc(Cl)c1)c1cccs1	15.6
Cc1ccc(C)c(Nc2ncnc(N)c2[N+](=O)[O-])c1	9.83
CC(=O)N1CCN(c2nnc(-c3ccc(C)cc3)c3ccccc23)CC1	-10.2
CCN(CCC(=O)Nc1ccc(Br)c(C)c1)Cc1ccccc1.Cl	-4.84
O=C(CNC(=O)c1cccs1)N/N=C/c1ccc(O)cc1O	10.6
Cn1cnc([N+](=O)[O-])c1SCCO	18.7
O=C(OCC(=O)N1CCN(C(=O)c2ccco2)CC1)c1ccc(Cl)c(Cl)c1	-24.1
CN1CCN(/C(=N\S(=O)(=O)c2ccc(F)cc2)c2ccccc2)CC1	14.1
COc1ccc(Cc2nnc(NS(C)(=O)=O)s2)cc1	4.8
O=C(c1ccccc1Cl)N1CCN(c2ncccn2)CC1	9.9
CC(=O)N1N=C(c2cccc(Br)c2)OC12CCCC2	9.44

Compound	hERG current change (%, negative = inhibition) at 1uM [%]
COCc1nc2sc(C)c(C)c2c(=O)[nH]1	10.9
O=C1CC2(CCN(C(=O)c3ccc(Br)cc3)CC2)Oc2ccccc21	-30.8
CC(C)C[C@@H](CO)N1CCN(Cc2ccc(O)cc2)CCC1=O	8.84
CC(=O)c1c(C(C)=O)c(C)n(-c2ccc3ncccc3c2)c1C	17.5
Cc1[nH]c2ccccc2c1[C@H]1[C@@H](CC#N)C1(C)C	0.902
Cc1nnc(SCC(=O)NC2CCCCCC2)n1C	20.1
COc1ccc(C2/C(=C(/O)c3ccccc3)C(=O)C(=O)N2c2ncccn2)cc1OC (stereo not drawn)	4.14
NC(=O)c1c(NC(=O)Cn2cnc([N+](=O)[O-])n2)sc2c1CCCC2	11.4
COc1ccc(CNC(=O)COC(=O)c2ccco2)cc1	9.97
CCOc1cc(CNc2ccc(N3CCCC3)cc2)cc(Cl)c1OC	6.15
COc1cccc(/C=N/NC(=O)c2cc(-c3ccccn3)nc3ccccc23)c1O	11.2
COc1ccc(C(=O)NCCCOC(C)C)cc1OC1CCN(C(C)=O)CC1	16.5
COc1ccc(/C=C/C(=O)Nc2ccc(S(=O)(=O)Nc3onc(C)c3C)cc2)cc1OC	18.7
COc1ccc(CC(=O)NCC(c2ccc(OC)cc2)N(C)C)cc1 (stereo not drawn)	8.86
COCCN(C(=O)COC(=O)c1ccc2[nH]c(C)c(C)c2c1)c1c(N)n(Cc2ccccc2)c(=O)[nH]c1=O	7.98
CCOc1ccc(NC(=O)CSc2nnc(C)n2Cc2ccccc2)cc1	-11.2
CCOc1ccccc1NC(=O)CCc1nnc2ccc(N3CCC4(CC3)OCCO4)nn12	1.14
CC(C)N1CCc2c(sc(NC(=O)c3ccc(S(=O)(=O)N(C)CC4CCCO4)cc3)c2C(N)=O)C1.Cl (stereo not drawn)	3.64
CCOc1ccc(/C=N/NC(=O)CN2CCSCC2)cc1	10.2

Compound	hERG current change (%, negative = inhibition) at 1uM [%]
CCN(CC)CCNc1ncnc2c1[nH]c1ccc(OC)cc12	-42.6
COc1ccc(C(=O)OCC(=O)Nc2ccc(Cl)cn2)cc1	14.2
CN(C)CCNC(=O)c1onc(CSc2ccc(F)cc2)c1C(=O)NCCN(C)C	9.46
Cn1nc(-c2ccccc2)c(-c2nc(-c3ccc(Cl)cc3)no2)c1Cl	8.1
Cc1c(S(=O)(=O)N2CCCC(C(=O)O)C2)cnn1C (stereo not drawn)	15.6
Cc1ccsc1/C=N/Nc1ccc(Cl)nn1	8.37
Cl.O=C1NCC2(CCN(CCc3ccccc3)CC2)O1	17
COc1cc2c(cc1OC)CN(C(=O)c1ccc(S(=O)(=O)N(C)c3ccccc3)cc1)CC2	3.47
O=C(Cn1nnc(-c2ccccc2-n2cnnn2)n1)N1CCCCC1	9.93
COc1cccc(C(=O)NCCCn2ccnc2)c1	9.03
COc1ccc(/C=N/NC(=O)CC(=O)N/N=C/c2ccc(OC)cc2)cc1	4.74
CCCC1(C)NC(=O)c2ccccc2O1 (stereo not drawn)	17.8
Cc1ccc(C(=O)N/N=C/c2ccc(-c3ccccc3[N+](=O)[O-])o2)cn1	2.39
Cc1ccc2c(c1)C(c1ccncc1)=NNC(c1ccc(F)cc1)=N2	2.66
CCN(c1ccccc1)S(=O)(=O)c1cc2c3c(c1)C(C)C(=O)N3CCC2 (stereo not drawn)	7.24
CCOC(=O)CNC(=O)N1CCCC(C(=O)c2ccc3c(c2)OCO3)C1 (stereo not drawn)	0.803
O=S(=O)(NCC1CCCO1)c1ccc(Br)cc1 (stereo not drawn)	10.7
Cc1ccc(S(=O)(=O)N2CCOCC2)cc1NC(=O)CNCC1CCCCC1.O=C(O)C(=O)O	8.34
CC(C)OCCCn1c(SC(C)C(=O)NCC2CCCO2)nc2cc(Cl)ccc2c1=O (stereo not drawn)	7.81
